This data set concerns ATP. The data set is described as follows: switch fluorescence ratio, 500 uM ATP over buffer (Cy3 cluster intensity, sum of 5 cycles each) (fold (ratio)); higher = stronger signal-on switching upon ATP binding; sequences stand for … in TCGTCGGCAGCGTCAGATGTGTATAAGAGACAGTTTTTTTTTTTTTTTTTTTTTTTTT…TC. Conditions: aptamer strand: ATP DNA aptamer (quencher-CACCTGGGGGAGTATTGCGGAGGAAGG + anchor), 100 nM annealed; ATP concentration: 500 uM; one replicate. An outline of the steps: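 Clusters with intensities outside 100-1000 RFU were excluded. The remaining Cy3-labelled switching-strand clusters on a modified Illumina MiSeq flow-cell had been annealed to 100 nM quencher-labelled ATP aptamer and imaged in selection buffer, then after 15 min with 500 uM ATP at 22 °C, for five cycles separated by NaOH stripping and re-annealing. The fluorescence ratio, averaged per switch-domain sequence, is each cluster's summed target-cycle Cy3 intensity over its summed buffer-cycle Cy3 intensity.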

Values marked as one replicate rest on one cluster of the flow cell; about a third of the high ones do not repeat.
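Further: ATP exposure 15 min at 22 °C before imaging.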

For CCCCCTGCAG, the switch fluorescence ratio was found to be 2.51.
Turning to GCCCATCTTC, the switch fluorescence ratio came out at 0.984.
On to CGTCGAGACA, for which the switch fluorescence ratio stood at 1.
Take TCACAACCTT: the switch fluorescence ratio was determined as 1.54.
CGACATGCCT: the switch fluorescence ratio is 1.01.
In the case of TGACATTCAG, the switch fluorescence ratio came out at 1.
Take CCAAGTCGGG: the switch fluorescence ratio is 0.956.
As to CTCAGCAAGA, the switch fluorescence ratio was determined as 2.07.
ACCTTGGTTC: the switch fluorescence ratio was 1.02.
The value for CGGATTCCTT was 1; that for GCTATAAGTC was 1.02; that for TTGATCGTCG was 0.961.
Take CCATGAGAAA: the switch fluorescence ratio stood at 1.04.
Consider AAAGAACAGA, for which the switch fluorescence ratio came to 1.02.
The value for CGCTACTGGA was 1.11; that for TGGCGTAGCA was 0.941; that for AGGCATCAAG was 0.99.
The value for CAGGGCGCTG was 1; that for GAGTAGTCGG was 1.03.
As to GCTCTTGAAG, the switch fluorescence ratio was determined as 0.976.
For the sequence TCACTTTGAT, the switch fluorescence ratio is 1.02.
With GTCTCATGTG, the switch fluorescence ratio was found to be 1.04.
Take CATAAATCTT: the switch fluorescence ratio was determined as 1.04.
Regarding TAGATACGCC, the switch fluorescence ratio came to 1.15.
As to GTTGTCTGTT, the switch fluorescence ratio was found to be 0.943.
Consider CTTAATATAT, for which the switch fluorescence ratio is 0.98.
Turning to CTAGTTATTT, the switch fluorescence ratio worked out at 0.986.
Regarding TACGTTTACA, the switch fluorescence ratio came out at 1.27.
In the case of GGCACTCATG, the switch fluorescence ratio was found to be 1.01.
Turning to GTAGGAAATG, the switch fluorescence ratio worked out at 0.997.
For the sequence AGCTGACAA, the switch fluorescence ratio is 1.01.
Consider GGAGCTAGGC, for which the switch fluorescence ratio turned out to be 1.68.
The value for GAACACCCT was 1.14; that for CAAGCTTCA was 1.27; that for GTCAGCCCTT was 0.965.
As for AAGTGCCAAA, the switch fluorescence ratio was determined as 1.02.
The value for CATCCTTATT was 1.14; that for GAGTATTCTT was 0.928; that for AGCGAGATCT was 1.02.
With ATTCAGGATT, the switch fluorescence ratio came to 0.994.
The value for ACAAACGTGA was 1.38; that for GGCTGCTCCC was 1.24; that for GGGCACATAT was 1.07.
Regarding GCAGCTTTGT, the switch fluorescence ratio is 1.04.
Turning to GCACTGCTTC, the switch fluorescence ratio was 1.1.
As for AAGGTAGCT, the figure is 0.973; as for CGAGGGAAAA, 0.995.
Take AGATTAAGAG: the switch fluorescence ratio was 0.982.
Consider GGAGCCAGTC, for which the switch fluorescence ratio came out at 1.08.
On to ATCATACCAG, for which the switch fluorescence ratio was 1.02.
As for TTGTGTTTC, the figure is 1.05.
As to CATAGGGGCT, the switch fluorescence ratio turned out to be 0.986.
Turning to ACAAATAGTT, the switch fluorescence ratio is 1.02.
Take GTGATCGTG: the switch fluorescence ratio was determined as 0.973.
As for TTATCAAAGT, the figure is 1.02; as for AACCGTTGCA, 1.02; as for TAGAGTGTA, 0.963.
Take ACGATGCAGC: the switch fluorescence ratio came to 1.68.
In the case of TCCTATCTTA, the switch fluorescence ratio amounted to 1.02.
In the case of ACGACCGCCA, the switch fluorescence ratio was 1.67.
As to AAAATGCGGC, the switch fluorescence ratio is 1.
Regarding GTCAGAGCTT, the switch fluorescence ratio turned out to be 1.01.
As for TAATGACCCG, the figure is 1.1; as for TGATGATGCG, 1.01.
As for CGCCGATTGC, the figure is 1.43; as for CATCAAATTG, 1.01.
Take GTAAGTCTTT: the switch fluorescence ratio was determined as 0.978.
As for ACGAGTAGTT, the switch fluorescence ratio stood at 1.01.
As to CATTGCCACG, the switch fluorescence ratio came to 1.01.
On to GGTACAGCTC, for which the switch fluorescence ratio was determined as 1.02.
As to GCCTCCTCGT, the switch fluorescence ratio came to 1.2.
The value for CTTGCTGTCA was 1.02; that for TCCACCTTGA was 0.992; that for GGCGTGCCCA was 1.05.
As for TATACTTGGA, the figure is 1.01; as for TGCTTCAAGT, 0.95.
Turning to CGCTCCTTCG, the switch fluorescence ratio was determined as 1.43.
On to ATCATTTGCG, for which the switch fluorescence ratio was 1.01.

Values taken from the supplement of paper PMC10126150.
